PubChem BioAssay AID651820 (National Center for Advancing Translational Sciences (NCATS), 2012)
The whole screen tested about 340,000 compounds, of which about 12,000 (3.5%) were called active. This list was built around the results that the source calls inconclusive (neither active nor inactive); the mix of calls is not that of the screen. Calls come from the whole dose curve; as a rule, active = well fitted inhibition curve with a large enough effect; inconclusive = small, poorly fitted or top-dose-only effect, or another doubt; inactive = no such curve, though single readings can be large or run the other way. Potencies of inconclusive entries are left out as doubtful fits.

Assay: qHTS Assay for Inhibitors of Hepatitis C Virus (HCV)
Settings: Huh7.5.1 HCVcc-Cre (HCVcc is cell-culture hepatitis C virus) infection, luciferase reporter, 44 h; series mostly up to 41.8 µM
Summary of the method: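 Whole-lifecycle infectious HCVcc-Cre system; cells 1,000/well, compound then virus (~0.5 moi) added 4 h after plating, 44 h culture. Luciferase read 15 sec following 15 min substrate incubation, room temp.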
Potency is the fitted concentration of half-maximal effect; tags give direction and shape of the fitted curve.

| Structure (SMILES) | Potency |
| --- | --- |
| O=S(=O)(NCCC1=CCCCC1)c1cccc2nsnc12 | inactive |
| COc1cccc(-c2nc(CS(=O)(=O)CC(=O)Nc3cccc(C)c3C)c(C)o2)c1 | inconclusive [inhibitor, single point] |
| COc1ccc([N+](=O)[O-])cc1NC(=O)CN(C)S(=O)(=O)c1ccccc1 | inconclusive [inhibitor, single point] |
| C/C(=N\Nc1cccc([N+](=O)[O-])c1)c1cc2ccccc2o1 | inconclusive [inhibitor, single point] |
| O=C(N/N=C/c1sc(N2CCCCC2)nc1-c1cccs1)c1cccnc1 | active: 11.2 µM |
| Cc1nc2cc(NC(=O)COc3ccc(C#N)cc3)ccc2n1-c1ccccc1 | inconclusive [inhibitor, partial curve] |
| O=C(Oc1ccccc1)c1cccc2cccc(C(=O)Oc3ccccc3)c12 | inconclusive [inhibitor, single point] |
| COc1cccc(Cn2cccc(NC(=O)Nc3ccccc3C)c2=O)c1 | active: 10 µM |
| CC(C)N(C(=O)[C@H]1C[C@H](CC(=O)NCC23CC4CC(CC(C4)C2)C3)C(=O)N2CCc3c([nH]c4cc(CCC(=O)N(C)C)ccc34)[C@]12C)C(C)C | inactive |
| CCOC(=O)c1sc(NC(=O)Nc2ccccc2)cc1C | inconclusive [inhibitor, partial curve] |
| O=C(NNC(=S)Nc1ccc(Cl)c(Cl)c1)c1cccc([N+](=O)[O-])c1 | inactive |
| Cc1c(-c2ccccc2)nc2ccccc2c1C(=O)NCc1cccs1 | inconclusive [inhibitor, single point] |
| COc1ccc(/C=N/N2CCN(c3ccccc3OC)CC2)cc1OC | inconclusive [inhibitor, single point] |
| CCOc1ccc(-c2nc(CSCC(=O)NCc3ccco3)c(C)o2)cc1 | inconclusive [inhibitor, partial curve] |
| COc1ccccc1N1CCN(S(=O)(=O)c2ccc3nc(-c4ccccc4)[nH]c3c2)CC1 | inactive |
| COc1ccc(C(NC(=O)CC(C)C)NC(=O)CC(C)C)cc1OC | inactive |
| COc1ccc(CCNC2=C(Cl)C(=O)N(CCc3ccc(OC)c(OC)c3)C2=O)cc1OC | active: 2.51 µM |
| Cc1sc(NC(=O)CN2CCOCC2)nc1-c1ccc2c(c1)CCN2S(=O)(=O)c1ccccc1 | inconclusive [inhibitor, full curve] |
| O=C(Nc1cccc(Br)c1)c1ccc(Cl)c(S(=O)(=O)N2CCOCC2)c1 | active: 3.98 µM |
| O=C(Cn1c(=O)n(CC2CS2)c2ccccc21)N1CCCCCC1 (stereo not drawn) | inactive |
| CCN1C(=O)c2cccc3c(Cl)ccc(c23)C1=O | inconclusive [inhibitor, partial curve, poor fit] |
| COC(=O)C1=C(C)N(Cc2ccccc2)C(=NCc2cc(OC)c(OC)c(OC)c2)N[C@H]1c1cccc(F)c1 | inactive |
| Cc1cccc2c1Sc1ccc(Cl)cc1CC2N1CCNCC1 (stereo not drawn) | active: 12.6 µM |
| COCCN(C(=O)CSc1nnc(-c2ccncc2)n1C)c1c(N)n(CC(C)C)c(=O)[nH]c1=O | inactive |

| Structure (SMILES) | Potency |
| --- | --- |
| COc1ccc(-c2cc3cc(OC)c(OC)cc3c(C)n2)cc1C | inactive |
| COc1ccc2nc(C)cc(SCC(=O)N/N=C/c3ccccc3)c2c1 | inactive |
| CC(OC(=O)c1ccccc1NS(=O)(=O)c1cccc(C(F)(F)F)c1)C(=O)N(C)Cc1ccccc1 (stereo not drawn) | inconclusive [inhibitor, single point] |
| S=C(NCc1ccccc1)Nc1ccncc1 | active: 1.78 µM |
| Cc1ccccc1CCNC(=O)c1ccc(Cl)c(S(=O)(=O)N2CC(C)OC(C)C2)c1 (stereo not drawn) | active: 7.94 µM |
| COc1ccc(NC(=O)/C=C/c2ccccc2)cn1 | inactive |
| CCOc1ccc(N(C)Cc2cc(=O)oc3ccc(OC)cc23)cc1 | inconclusive [inhibitor, partial curve] |
| Cc1ccc(-c2nc3cccnc3o2)cc1NC(=O)COc1ccc(C(C)(C)C)cc1 | inconclusive [inhibitor, single point] |
| COC(=O)C(O)(CC(=O)Nc1ccc(C)c(F)c1)C(F)(F)F (stereo not drawn) | inactive |
| C[N+]1(C)CCN(c2ccccc2)CC1 | inconclusive [inhibitor, single point] |
| CCn1nc(C)cc1C(=O)N1CCCC(N2CCN(Cc3ccc4c(c3)OCO4)CC2)C1 (stereo not drawn) | inconclusive [inhibitor, partial curve] |
| COc1ccccc1C(c1nnnn1Cc1ccco1)N1CCN(c2cccc(C)c2C)CC1 (stereo not drawn) | active: 12.6 µM |
| O=C(COC(=O)c1c(Cl)cccc1Cl)Nc1cccc(S(=O)(=O)NC2=NCCCCC2)c1 | inactive |
| N#C/C(=C\c1ccc(Sc2ccccc2)o1)c1nc2ccccc2[nH]1 | inconclusive [inhibitor, single point] |
| CCCCNC(=O)CN1CCN(Cc2ccc3cc(OC)ccc3c2)CC1 | inconclusive [inhibitor, single point] |
| C=CCSc1nn2c(=O)c3ccccc3nc2s1 | inactive |
| Cc1cc2cc3c(cc2nc1SCC(=O)N1CCN(C(=O)c2ccco2)CC1)OCO3 | inconclusive [inhibitor, full curve, poor fit] |
| Cc1cc(C)n(C(=O)Cn2nc([N+](=O)[O-])c(Br)c2C)n1 | inactive |
| Cc1ccc(Cl)cc1N1CCN(C(=O)c2ccccc2SCC(=O)N2CCCC2)CC1 | active: 11.2 µM |
| CC(=O)Nc1ccc(OCc2cccc3ccccc23)cc1 | inactive |
| CCOC(=O)N1CCN(C(=O)/C=C/c2cccc([N+](=O)[O-])c2)CC1 | inactive |
| COc1ccc(C(=O)CSc2nnc(-c3cc(C)cc(C)c3)o2)cc1 | inconclusive [inhibitor, full curve, poor fit] |
| O=C(NCc1csc(-c2cccs2)n1)c1ccsc1 | inactive |
| CCN(CC)CCNC(=O)c1ccc(Cl)c(S(=O)(=O)N2CCCCCC2)c1 | inconclusive [inhibitor, partial curve] |
